Data: the supplement of paper PMC4466236
Whole data set: some 33,000 sequences, median “E-score (dimensionless, -0.5 to 0.5)” near -0.058, cut for the highest 2% near 0.35. This is one part of the list.

system: MvaT; test: PBM 8-mer E-score (mean of HK and ME arrays) (E-score (dimensionless, -0.5 to 0.5)); higher = stronger relative binding preference; most listed sequences are background and not binding sites
In short: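 Reported values are rank-based E-scores, taken as the mean of two universal arrays and parsed with a custom script. Each 8-mer score falls between -0.5 and 0.5. The arrays, ME and HK, were double-stranded 60-mers with a constant 25-mer primer region and a variable 35-mer region covering all 8-mers. They were probed, by an earlier protocol, with full-length P. aeruginosa MvaT carrying an N-terminal glutathione S-transferase fusion.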

Sequence | PBM 8-mer E-score
GAAATAGC | 0.151
CAACCCGG | -0.226
TGATCAAA | 0.117
ATAGTAAA | 0.327
AACCGCCA | -0.0966
CCAGTCAC | -0.158
CTGCGGCA | -0.209
CGTTACCC | -0.0868
ACCCAAGA | -0.0615
AGCGAGCC | -0.235
AGAGAGTC | -0.186
GACGTACA | 0.034
GTTTCAGA | 0.0751
CCGTCGGC | -0.287
GGAAGATA | 0.0618
CGCACCTC | -0.233
AAGCTAGA | 0.058
ATAGCTGA | 0.0649
GATTTCCA | -0.0348
AAACCAGG | -0.173
ACCCTCAC | -0.199
CATGTTAC | 0.198
GTAGCAAA | 0.116
CAGTTGCA | -0.00346
CACTCTTC | -0.164

Sequence | PBM 8-mer E-score
ATCGGCAT | -0.0898
TAGCGTCA | -0.121
CCATAGCC | -0.234
CAGCCCCG | -0.27
CCGGCCGA | -0.0662
CGACAGCC | -0.107
AAGACATC | -0.0219
CACGCAGG | -0.323
GTTAATGA | 0.264
ATATAGAT | 0.35
AACCCACG | -0.111
GTCGTGTA | -0.19
TCACCCCA | -0.117
AATATCCA | 0.198
AGTATGAC | 0.145
AATCCACA | 0.139
CCGTCAAC | -0.129
AGGTTGGG | -0.167
CACCCCAG | -0.333
AAAATGTG | 0.0752
CCGTGATA | 0.0119
GAGTGGAC | -0.101
GCGATGAC | -0.136
CGTGTCCC | -0.138
GGCCAGGA | -0.183

Sequence | PBM 8-mer E-score
ACTCATCG | -0.021
GACAGGAC | -0.173
CATCTTTC | -0.00603
ACACCCAT | 0.08
GCTAACGA | -0.0928
AACTTACA | 0.33
CATAAATG | 0.112
GGGGGATA | -0.0492
AAATGTCC | 0.0297
AATGGCGT | 0.00855
AAATTCCC | 0.0738
GCGCTACA | -0.0341
AAGTAAGA | 0.247
AAGGCACG | -0.189
ATGATTTC | 0.0574
ATCCTGGA | 0.0568
GGTCCATA | -0.0468
CCCCCAGG | -0.337
GTGAAACA | 0.218
GTAGCGAC | -0.12
GCATTGAA | 0.098
CGTAAAAC | 0.0493
CGACATTA | 0.185
GTAGCCTA | -0.0873
ACTCTGAC | -0.0817

Sequence | PBM 8-mer E-score
AGCCAGAC | -0.0924
GGCCTAGA | -0.27
AGGTAGTC | -0.145
GCCGACCA | -0.0641
CATAGGGG | -0.18
GGACGCCA | -0.112
CGAGCCGC | -0.302
ATCCTAAC | 0.093
AGGTAAGG | -0.193
AGACTACT | 0.172
ACAAATGA | 0.115
AACATGGT | -0.0293
GGAGCTAA | -0.146
GATAGGCA | -0.0519
CAAACTCC | -0.0931
TGAGCTAA | -0.0684
AGAGACAA | -0.0697
AGGATTAA | 0.118
CGCGTGAA | 0.0803
ATGGTCAG | -0.138
GAACTGGA | -0.161
TATGAAAA | 0.282
TACCGAAA | 0.0367
TACACAGA | 0.104
CCTTACAC | 0.0641

Sequence | PBM 8-mer E-score
AACAAGCG | 0.0541
ATGCTTAG | -0.000164
AAGAAGCT | -0.0873
CTTAGCGA | -0.029
GCGTTGCC | -0.179
CAATGTCG | -0.08
AATGAGTC | -0.048
GACCATTA | 0.175
ACTTACAC | 0.232
AGCGCCTG | -0.312
AAGCTCGG | -0.135
AGAGATTG | 0.084
AGAGCTGA | -0.211
AGGCGGAG | -0.293
AGTCGGCA | -0.183
GCGCAGCC | -0.277
ATTGTTCC | 0.0877
CCGTCTTA | -0.0266
AATGAAGC | 0.0469
CCCTGTCC | -0.196
GACTTGAC | -0.147
CAGCAAGA | -0.03
CGCCATTA | 0.175
CTGCAAAC | 0.091
GCGGCAAA | 0.0964

Sequence | PBM 8-mer E-score
AATCCCCC | -0.126
ATGTAATC | 0.223
AATCGCTG | -0.0494
CGAATGTA | 0.177
TAGGAAAA | 0.015
CTCCTAAA | -0.112
CAATATTA | 0.373
ACCGCTTA | -0.0206
ACTTTCCG | 0.119
AGCAATAC | 0.201
ATCAATTA | 0.319
TGTGTGAA | 0.00419
ACCTTGGG | -0.221
AGGTGGCG | -0.0518
AATGTAGT | 0.177
ACTTGAGA | 0.0639
TCTACAAA | 0.00942
AATCTTAT | 0.188
AACATGTA | 0.347
GTTTTCGA | 0.086
AAAGTTCC | 0.226
CACAAATC | 0.0941
CATTGGTC | -0.0818
AACGAAAG | 0.224
GGGGTGGA | -0.243

Sequence | PBM 8-mer E-score
AGTTTATG | 0.304
GAGCCGGC | -0.205
TCATGAAA | 0.108
CGTGAGCC | -0.287
CACCTCTC | -0.205
CTAAGATA | 0.281
CAGTTCGG | -0.119
ATGTGTCG | 0.0669
CACTTACA | 0.212
CCCTATCC | -0.293
AAAGAAAT | 0.164
GCTGTCGA | -0.0706
AAAAAGCG | 0.183
ACCGACAA | 0.062
GGGGCTCA | -0.347
AATTTCAT | 0.264
CGGGACCA | -0.154
ATTCCCCG | -0.0407
CATTTGAG | 0.117
CACTGCTG | -0.115
CTGAGTGA | -0.0531
AGTAGATC | -0.194
CAACAGTA | 0.11
AATATTCA | 0.312
AAGTCCCA | -0.0242

Sequence | PBM 8-mer E-score
AGACTTTC | 0.0416
CTATCTCA | -0.0182
AAACCCCC | -0.301
ACATAATC | 0.222
AGAGGAAT | 0.0381
GATGCGTA | -0.153
CAGTTCTC | -0.151
CAAGCTTG | -0.234
ATGCCCTG | -0.132
ACCTTCTG | -0.062
GAGTTCCC | -0.16
AGAGTATA | 0.306
ATGAGCCG | -0.153
CGCCCGTC | -0.284
AATACGGG | -0.0239
ACAGCGCC | -0.206
AAGACCTA | -0.0822
ACAGGTCA | -0.207
CTCGGGTA | -0.000585
GCGCCGCC | -0.337
ATTCTACG | 0.00631
GTAAGGTA | 0.0644
GTGTACTA | 0.0241
GTCGGAAA | 0.0251
CGCGCTCC | -0.246

Sequence | PBM 8-mer E-score
AACTCCGG | -0.146
GAGTGCTA | 0.0515
ATCTATAG | 0.146
CTGATCCA | -0.212
ACATCAAG | -0.0717
ATCGCTAC | -0.16
ACGGTATG | -0.214
AGTTACCG | 0.0173
TGAACCAA | -0.0692
AAATCAAA | 0.209
AGTTTGTC | 0.0701
CATATTCG | 0.173
GTAGACAA | -0.118
GCGTATAA | 0.201
TCGAACAA | 0.0746
CGTGGGAC | -0.175
CTGGCTCA | -0.136
AATATAGG | 0.288
CTCCACGA | -0.0888
GAATTGAC | 0.0491
ATGCCTTG | -0.0691
CCAGGGCG | -0.142
ACATCTGG | -0.118
GAAGGAGC | -0.315
GCCCCACA | -0.169

Sequence | PBM 8-mer E-score
AAAGAGCG | -0.0407
AACAAGCC | 0.0697
GCTATTCC | 0.0729
CGTCCTTA | -0.0548
GCGGGTCC | -0.104
GACAATAA | 0.28
CTAGTAAC | 0.212
CGACACTC | -0.0968
ATCCTCCG | -0.29
ATCGTCGC | -0.131
CAGCGCGG | -0.245
CCTACGAA | -0.128
GAAGGTCA | -0.173
CCGTTCAC | -0.213
CGACGGAG | -0.115
ATTGATGG | -0.0185
CACCGGTG | -0.153
CGCATCGC | -0.172
GAATCTCC | -0.16
CCCTTCTC | -0.102
CTTGTGTA | -0.0771
CCGAAAGA | -0.02
ACCTCCTC | -0.275
ATTCTTGG | -0.105
ATTAAACC | 0.249

Sequence | PBM 8-mer E-score
CGGACGAA | -0.178
ACGGGCCC | -0.183
GGACTTGA | 0.00781
GGCCCACC | -0.28
AGACCCCT | -0.228
ATCAATGA | 0.163
GAGGGGAA | -0.241
ACGTACTA | 0.176
CGATTCTC | -0.121
GCGCTCCA | -0.228
GACCCGCA | -0.00755
CCTACTCC | -0.175
AACATCCG | 0.129
GTTGCTTA | 0.0313
AACTTTGC | 0.294
CGAGTTTA | 0.203
CCACTTTA | 0.00646
CCAAATTA | 0.228
AAACCGAA | 0.174
CCCTAACG | -0.235
GCGTGTTA | 0.117
CAATGACC | -0.149
GCGTGATA | 0.133
CACTAAGG | -0.0742
ACACATAT | 0.344

Sequence | PBM 8-mer E-score
CTGAGGTA | -0.165
ACTTCATA | 0.164
ACAGTGCA | -0.0545
CACGGATA | 0.0195
AAAGTGCC | -0.0197
CATTGTTC | 0.143
GCTATTGA | 0.0714
AATAGCCG | -0.00324
ACGGTAGA | -0.116
AGACAACG | -0.133
CGGATGAG | -0.197
AAAAGAGA | 0.103
AATTATAC | 0.342
ACCCATCG | -0.107
CCTACACA | -0.133
ATGCCGGG | -0.178
TCAGCTGA | 0.0734
ACTTTGCG | 0.206
ATGAGCAG | -0.136
ACCATCCG | -0.225
CCCAACCG | 0.0334
AGGATTGG | -0.158
AACCGCTC | -0.22
AGAGATCG | -0.116
AGAAGCAA | 0.00903

Sequence | PBM 8-mer E-score
CACAAGTA | 0.214
AATCCACT | -0.0779
GCCTCGCA | -0.204
CATGTAAG | 0.0769
CTAAGGCC | -0.149
ACGTGTCT | 0.0166
CCGAGGAA | -0.143
ACTGCAAG | -0.0835
CTGCCAGC | -0.251
CCAGAGTA | -0.115
GGAGAGTA | -0.0478
CACTTATA | 0.326
TCTTAGAA | 0.168
ACCATCGC | -0.242
ACTTTTGA | 0.134
CGACTTCA | -0.13
ACACACTG | -0.146
ACAATACG | 0.0961
GCCTTTAC | -0.0615
AATACACT | 0.137
GGTATTGA | 0.129
CTTGCCAC | -0.122
GTTGGGCA | -0.0983
AGTGCTTA | 0.057
AGTGGGCC | -0.226

Sequence | PBM 8-mer E-score
GGTCTATA | -0.039
CTCCTATC | -0.119
ATGCGGGA | -0.182
ATTTTAAA | 0.383
GTGTAAAA | 0.129
AAGTAGGT | 0.0927
CCGGGGGC | -0.284
ACAGAGCT | -0.177
CCGTATAA | 0.125
CAGTCAGA | -0.127
TACCTTAA | 0.236
ACGTTTTA | 0.211
GACTATAC | 0.151
CACCCCAA | -0.081
CCCGTTTA | 0.0119
ACAAATAG | 0.268
AAATCGTT | 0.126
CCCTGCCA | -0.157
CCAGGCAG | -0.282
